Results taken from the antibiotic and cytotoxicity screens of Wong et al. (2023).
The list shows a part of the results.

Key:
[1] = tested on: HSkMC (human skeletal muscle cells); assay: cytotoxicity call (relative viability < 0.9); conditions: 10 µM
[2] = tested on: HepG2; assay: cytotoxicity call (relative viability < 0.9); conditions: 10 µM
[3] = tested on: S. aureus RN4220; assay: growth inhibition call (relative growth <= 0.2); conditions: 50 µM

SMILES | cytotoxicity call [1] | cytotoxicity call [2] | growth inhibition call [3]
Cc1ccccc1S(=O)(=O)N1C[C@H](O)COC[C@@H]2O[C@H](CC(=O)N3CCC(Cc4ccccc4)CC3)CC[C@H]21 | inactive | inactive | inactive
OC[C@H]1O[C@H](O)C[C@@H](O)[C@@H]1O | inactive | inactive | inactive
C[C@@H]1CCCCO[C@@H](CN(C)Cc2ccncc2)[C@H](C)CN([C@H](C)CO)C(=O)c2cc(NC(=O)Nc3cccc4ccccc34)ccc2O1 | inactive | inactive | inactive
CC(C)(C)[S@@](=O)N1Cc2cc(C(=O)N[C@@H]3CCN(Cc4ccccc4)C3)nc(-c3cccc(-c4cccnc4)c3)c2[C@H]1CCO | inactive | inactive | inactive
C[C@H](CO)N1C[C@H](C)[C@@H](CN(C)CC2CC2)Oc2c(NS(=O)(=O)c3cn(C)cn3)cccc2C1=O | inactive | inactive | inactive
OCCc1ccc(O)c(O[C@H]2O[C@@H](CO)[C@@H](O)[C@@H](O)[C@@H]2O)c1 | inactive | inactive | inactive
C[C@H]1CN([C@@H](C)CO)C(=O)c2cc(-c3cccc(C(=O)N(C)C)c3)cnc2O[C@@H]1CN(C)S(=O)(=O)c1cccc(F)c1 | inactive | inactive | inactive
C[C@@H]1CN([C@@H](C)CO)C(=O)Cc2cc(NC(=O)Cc3cn(C)c4ccccc34)ccc2O[C@@H]1CN(C)Cc1ccc(C(=O)Nc2ccccc2N)cc1 | inactive | inactive | inactive
C[C@H](CO)N1C[C@H](C)[C@H](CN(C)Cc2ccc(Cl)c(Cl)c2)Oc2ccc(NS(=O)(=O)c3cccs3)cc2CC1=O | inactive | inactive | inactive
C[C@H]1CN([C@@H](C)CO)C(=O)Cc2cc(NS(=O)(=O)c3ccccc3)ccc2O[C@@H]1CN(C)S(=O)(=O)c1ccc(F)cc1 | inactive | inactive | inactive
C[C@@H]1CCCCO[C@H](CN(C)C(=O)Nc2ccc(F)cc2)[C@H](C)CN([C@@H](C)CO)C(=O)c2cc(NS(=O)(=O)c3cccs3)ccc2O1 | inactive | inactive | inactive
COc1ccccc1C#Cc1cnc2c(c1)C(=O)N([C@@H](C)CO)C[C@H](C)[C@H](CN(C)C(=O)CC1CC1)O2 | inactive | inactive | inactive
C[C@H]1CN([C@@H](C)CO)C(=O)c2cc(C#Cc3cccc(F)c3)cnc2O[C@@H]1CN(C)C(=O)C1CCOCC1 | inactive | inactive | inactive
C[C@H]1CN([C@@H](C)CO)C(=O)Cc2cc(NC(=O)C3CCCCC3)ccc2O[C@@H]1CN(C)Cc1ccc(Oc2ccccc2)cc1 | inactive | inactive | inactive
COc1ccc(S(=O)(=O)N(C)C[C@H]2OCCCC[C@H](C)Oc3ccc(NS(=O)(=O)c4ccc(Cl)cc4)cc3C(=O)N([C@@H](C)CO)C[C@@H]2C)cc1 | inactive | inactive | inactive
COc1ccc(C2=N[C@H](c3ccc(Cl)cc3)[C@H](c3ccc(Cl)cc3)N2C(=O)N2CCNC(=O)C2)c(OC(C)C)c1 | inactive | inactive | inactive
C[C@@H]1CN([C@@H](C)CO)C(=O)c2cc(NC(=O)Nc3ccc(C(F)(F)F)cc3)ccc2O[C@@H](C)CCCCO[C@H]1CN(C)Cc1ccccc1 | active | active | inactive
Cc1ccc(S(=O)(=O)Nc2ccc3c(c2)CC(=O)N([C@H](C)CO)C[C@@H](C)[C@H](CN(C)S(=O)(=O)c2ccc(F)cc2)O3)cc1 | inactive | inactive | inactive
C[C@@H]1CCCCO[C@H](CN(C)C(=O)Nc2ccccc2)[C@H](C)CN([C@@H](C)CO)C(=O)c2cc(NS(=O)(=O)c3ccc(Cl)cc3)ccc2O1 | inactive | inactive | inactive
CCOC(=O)c1ncn2c1C(=O)OC2(C)C | inactive | inactive | inactive
CN1CCN(C(=O)C[C@@H]2CC[C@@H]3[C@H](COC[C@@H](O)CN3C(=O)C3CCCC3)O2)CC1 | inactive | inactive | inactive
Cc1noc(C)c1NC(=O)N(C)C[C@H]1Oc2c(NC(=O)C3CCOCC3)cccc2C(=O)N([C@@H](C)CO)C[C@@H]1C | inactive | inactive | inactive
CN1CCCC(n2nc(Cc3ccc(Cl)cc3)c3ccccc3c2=O)CC1.Cl (centres undefined) | inactive | inactive | inactive
C[C@H](CO)N1C[C@H](C)[C@H](CN(C)S(C)(=O)=O)Oc2ncc(C#CC(C)(C)O)cc2C1=O | inactive | inactive | inactive
C[C@H](CO)N1C[C@H](C)[C@H](CN(C)S(=O)(=O)c2ccc(C(F)(F)F)cc2)OCc2ccccc2-c2ccccc2C1=O | inactive | inactive | inactive
C[C@@H]1CCCCO[C@H](CN(C)C(=O)Nc2ccc(F)cc2)[C@H](C)CN([C@@H](C)CO)C(=O)c2cc(NC(=O)Cc3ccccc3)ccc2O1 | inactive | inactive | inactive
C[C@@H]1CN([C@@H](C)CO)C(=O)Cc2cc(NC(=O)Cn3cnnn3)ccc2O[C@H]1CN(C)S(=O)(=O)c1ccc(F)cc1 | inactive | inactive | inactive

SMILES | cytotoxicity call [1] | cytotoxicity call [2] | growth inhibition call [3]
CC[C@@H]1OC(=O)[C@@H](C)[C@H](O[C@H]2C[C@@](C)(OC)[C@@H](O)[C@H](C)O2)[C@@H](C)[C@H](O)[C@@](C)(O[C@@H]2O[C@H](C)C[C@H](N(C)C)[C@H]2O)C[C@H](C)C(=O)[C@@H](C)[C@H](O)[C@@]1(C)O | inactive | inactive | active
COc1ccc(N2CCCS2(=O)=O)cc1N | inactive | inactive | inactive
C[C@H](CO)N1C[C@H](C)[C@@H](CN(C)C(=O)Cc2ccncc2)Oc2cc(C3=CCCC3)ccc2S1(=O)=O | inactive | inactive | inactive
C[C@@H]1CCCCO[C@H](CN(C)S(=O)(=O)c2cn(C)cn2)[C@H](C)CN([C@@H](C)CO)C(=O)c2cc(NC(=O)CCCN(C)C)ccc2O1 | inactive | inactive | inactive
C[N+](C)(C)CCCCNC(=O)[C@@H]1C[C@@H]2C(=O)N[C@@H](CCCC[N+](C)(C)C)C(=O)N2[C@@H]1c1ccc(O)cc1 | inactive | inactive | inactive
C[C@H](CO)N1C[C@H](C)[C@@H](CN(C)C(=O)NC2CCCCC2)Oc2ccc(NC(=O)CCCN(C)C)cc2C1=O | inactive | inactive | inactive
Cc1cc(C)n(CCC(=O)O)n1 | inactive | inactive | inactive
C[C@@H]1CN([C@@H](C)CO)C(=O)c2cccc(NS(=O)(=O)c3ccc(F)cc3)c2O[C@H]1CN(C)S(=O)(=O)c1cccs1 | inactive | inactive | inactive
Cc1ccc2nc(-c3ccc(/N=C\c4ccc[nH]4)cc3)sc2c1 | inactive | active | inactive
C[C@@H]1CN([C@@H](C)CO)C(=O)c2cc(NC(=O)CCN3CCOCC3)ccc2O[C@H]1CN(C)Cc1ccncc1 | inactive | inactive | inactive
COc1ccc(S(=O)(=O)N2C[C@H](O)COC[C@@H]3O[C@@H](CC(=O)NCc4ccc(Cl)c(Cl)c4)CC[C@H]32)cc1 | inactive | inactive | inactive
C[C@H](CO)N1C[C@H](C)[C@@H](CN(C)C(=O)c2ccncc2)Oc2ncc(-c3ccc(C(=O)N(C)C)cc3)cc2C1=O | inactive | inactive | inactive
C[C@H](CO)N1C[C@H](C)[C@H](CN(C)Cc2ccc(C(F)(F)F)cc2)OCCCC[C@H](C)Oc2ccc(NC(=O)NC3CCCCC3)cc2C1=O | inactive | inactive | inactive
Cc1noc(C)c1S(=O)(=O)Nc1ccc2c(c1)C(=O)N([C@@H](C)CO)C[C@H](C)[C@H](CN(C)S(=O)(=O)c1cn(C)cn1)OCCCC[C@@H](C)O2 | inactive | inactive | inactive
C[C@@H]1CN([C@H](C)CO)C(=O)Cc2cc(NC(=O)Cn3cnnn3)ccc2O[C@H]1CN(C)S(=O)(=O)c1cn(C)cn1 | inactive | inactive | inactive
COc1ccc(CCC(=O)c2c(O)cc(O[C@@H]3O[C@H](CO)[C@@H](O)[C@H](O)[C@H]3O[C@@H]3O[C@@H](C)[C@H](O)[C@@H](O)[C@H]3O)cc2O)cc1O | inactive | inactive | inactive
C[C@H]1CN([C@@H](C)CO)S(=O)(=O)c2ccc(-c3ccc(C(=O)N(C)C)cc3)cc2O[C@H]1CN(C)C(=O)C1CCOCC1 | inactive | inactive | inactive
C[C@H]1CCCCO[C@H](CN(C)Cc2ccc(Cl)c(Cl)c2)[C@@H](C)CN([C@@H](C)CO)C(=O)c2cc(NS(C)(=O)=O)ccc2O1 | inactive | inactive | inactive
CCCN(C)C[C@H]1OCCCC[C@@H](C)Oc2ccc(NC(=O)Nc3ccc(F)cc3)cc2C(=O)N([C@@H](C)CO)C[C@H]1C | inactive | inactive | active
COc1ccc(NC(=O)Nc2cccc3c2O[C@@H](CN(C)CC2CCCCC2)[C@H](C)CN([C@@H](C)CO)C3=O)cc1 | inactive | inactive | inactive
C[C@@H]1CN([C@@H](C)CO)C(=O)c2cc(NS(=O)(=O)c3cccs3)ccc2O[C@@H](C)CCCCO[C@H]1CN(C)C(=O)Nc1ccc(F)cc1 | inactive | inactive | inactive
CC(C)NC(=O)N(C)C[C@@H]1OCCCC[C@H](C)Oc2ccc(NC(=O)Nc3ccccc3)cc2C(=O)N([C@@H](C)CO)C[C@H]1C | inactive | inactive | inactive
CC(C)[C@H]1COC(=O)N1 | inactive | inactive | inactive
C[C@@H]1CN([C@@H](C)CO)S(=O)(=O)c2ccc(Br)cc2O[C@@H]1CN(C)S(=O)(=O)c1cn(C)cn1 | inactive | inactive | inactive
Cc1noc(C)c1S(=O)(=O)N(C)C[C@H]1OCCCC[C@@H](C)Oc2ccc(NC(=O)Nc3cccc4ccccc34)cc2C(=O)N([C@H](C)CO)C[C@@H]1C | inactive | inactive | inactive
CCCNC(=O)C[C@@H]1CC[C@H]2NC[C@H](O)COC[C@@H]2O1 | inactive | inactive | inactive
